Data: PubChem BioAssay AID463173 (ICCB-Longwood Screening Facility, Harvard Medical School, 2010)
The whole screen tested about 52,000 compounds, of which about 4,300 (8.3%) were called active. No stated cut-off is given here; in the data, active means survival mostly below about 52% (no sharp cut-off); inactive means mostly above about 56%. The list shows a part of the results.

These compounds were tested on DeltatarO mutant (assay: S. aureus survival, RN4220 and DeltatarO strains – OD600, teichoic acid synthesis inhibitors, primary screen (AID 463173)). Conditions: S. aureus RN4220 wild type/DeltatarO growth, OD600, 18 h, stronger effect = lower value, screened at 18.75 µg/mL (by protocol).

SMILES | survival
CCOC(=O)c1ccccc1NC(=O)Cn1cc(C(=O)c2cccc(OC)c2)c(=O)c2ccc(C)nc21 | inactive: 85%
CCOC(=O)c1c(C)[nH]c(CCC(=O)NCCCN2CCN(c3ccc(F)cc3)CC2)c1C | inactive: 94%
COc1ccc2cc(CNC3CCCCC3)c(=O)[nH]c2c1 | inactive: 91%
CC(C)c1ccc(NC(=O)c2cc3c(s2)-c2ccccc2SC3)cc1 | inactive: 100%
Cc1ccc(CCNC(=O)c2ccc3c(c2)N(Cc2cccc(C)c2)C(=O)c2ccccc2S3(=O)=O)cc1 | inactive: 72%
COCCc1nn2c(=O)cc(COC(=O)c3ccc4c(c3)OCO4)nc2s1 | inactive: 128%
CC(=O)Nc1ccc(C(=O)CSc2nnc(-c3ccccc3)n2-c2ccccc2)cc1 | inactive: 62%
Cc1ccc(-c2cc(C(=O)NCc3cnn(C)c3C)c3cc(Br)ccc3n2)cc1 | active: 36%
Cc1ccc(S(=O)(=O)c2nc(-c3ccccc3F)oc2N2CCCCC2)cc1 | active: 32%
Cc1ccc(S(=O)(=O)N/N=C2/CSCC2NC(=O)c2ccccc2)cc1 (stereo unspecified) | inactive: 87%
CSc1nnc(-c2ccccc2N)c(=O)[nH]1 | inactive: 87%
CC(=O)N1CCc2cc(CNS(=O)(=O)c3ccc(F)cc3)ccc21 | inactive: 80%
CCc1ccc(-c2cn3c(n2)sc2cc(C(=O)NC4CCCCCC4)ccc23)cc1 | inactive: 79%
O=C(NCc1cccc(Cl)c1)c1cc2c(s1)-c1ccccc1OC2 | inactive: 50%
CCc1c(C)sc2c1CCN(Cc1cccc(F)c1)C2c1ccccc1 (stereo unspecified) | inactive: 66%
O=C(NC1CCN(C(=O)NC2CCCCC2)CC1)c1ccc(F)cc1 | inactive: 85%
CCS(=O)(=O)N1CCc2cc(C(=O)NCc3ccc(OC)cc3)ccc21 | inactive: 89%
Cn1cc(S(=O)(=O)c2cccc(Cl)c2)c(=O)c2cc(F)c(N3CCCCCC3)cc21 | inactive: 81%
CCC(CC)C(=O)Nc1ccc(OCc2cc(=O)n3c4c(sc3n2)CCCC4)cc1 | inactive: 100%
O=C(NC1CC1)c1ccc(Cn2c(SCc3cccc(F)c3)nc3cccnc32)cc1 | inactive: 112%
Cn1c(SCC#N)nnc1-c1ccccc1 | inactive: 92%
O=C(Nc1ccc(Cl)cc1)C1CCN(c2nc3ccccc3nc2C(F)(F)F)CC1 | active: 25%
O=C(Nc1ccc(F)c(F)c1)c1nc2ncccn2n1 | inactive: 82%
O=C(NCC(c1cccnc1)N1CCc2ccccc2C1)c1ccc(F)c(F)c1 (stereo unspecified) | inactive: 70%
COc1ccccc1N1CCN(C(=O)c2ccc(CS(=O)c3ccccc3C)o2)CC1 (stereo unspecified) | inactive: 75%
COc1ccc(CCN2C(=O)c3oc4cc(C)cc(C)c4c(=O)c3C2c2ccc(F)cc2)cc1OC (stereo unspecified) | inactive: 56%
